Biological target: CGRP receptor on SK-N-MC cells (UniProt O60894 27-148; Q16602 23-461, limits assumed)
Experiment: cell-based or functional assay

Sequence of UniProt O60894 (O60894 27-148 limits assumed, chain 1 of 2): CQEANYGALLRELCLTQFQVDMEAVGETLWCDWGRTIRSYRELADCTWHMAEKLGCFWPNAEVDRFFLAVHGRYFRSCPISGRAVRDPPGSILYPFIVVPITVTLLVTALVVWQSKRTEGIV
Sequence of UniProt O60894 (Q16602 23-461 limits assumed, chain 2 of 2, further chain): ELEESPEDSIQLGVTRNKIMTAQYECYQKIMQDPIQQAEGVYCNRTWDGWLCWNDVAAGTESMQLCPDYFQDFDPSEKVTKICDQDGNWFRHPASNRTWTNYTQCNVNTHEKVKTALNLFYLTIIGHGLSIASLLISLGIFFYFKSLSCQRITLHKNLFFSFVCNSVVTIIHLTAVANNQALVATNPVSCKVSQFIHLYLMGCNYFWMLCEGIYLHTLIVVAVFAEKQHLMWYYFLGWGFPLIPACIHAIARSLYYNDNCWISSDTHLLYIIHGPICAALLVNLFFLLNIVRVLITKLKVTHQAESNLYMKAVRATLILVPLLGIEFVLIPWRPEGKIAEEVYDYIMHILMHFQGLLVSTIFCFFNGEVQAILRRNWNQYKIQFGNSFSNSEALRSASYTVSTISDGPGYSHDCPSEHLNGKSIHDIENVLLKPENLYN

B1: 42hv10Fc (Fc fusion)
chain: QVQLVESGGGLVQPGGSLRLSCAASGRTFSGYVMGWFRQAPGKGLEFVAALRWSSSNTNYAASVKGRFTISRDYAKDTVYLQMNSLRAEDTAVYYCAAKRDRPYGSTWTPVAADYDTWGQGTLVTVSS[human IgG1 Fc with changes not written out]
IC50 of inhibition of CGRP-induced cAMP production, against the prototype (42wtFc): 2 fold better than the prototype
